The text below walks through data of the RNAGym collection of RNA variant scans (doi:10.7554/elife.90254).

Read counts are not given, so values of variants with three or more changes are uncertain.

The chains are these.
B1: LINE1-full (parent)
chain: UACGUAGGUGGUUUUCCCCUGAUAGUGCUAAGGGGGCCUGGAAGUUUGGACUGGGCAGAGCUCAACACAGCGUGGCAAAGUGGCUGUGGCUAGACUGCCUCUCUGGAUUCCUCGUCACUCAGCAGGGCAUCUCUGAGAGAAAUGCC

In the series the parent is B1. In words: self-cleavage, relative activity (ratio to wild type); higher = more cleavage; in vitro, sequencing; the parent is a self-cleaving ribozyme.
On to UACGUAGGUGGUUUUCCCCUGAUGGUGCCAAAGGGGCCUGGAAGUUUGGACUGGGCAGAGCUCAACACAGCGUGGCAAAGUGGCUGUGGCUAGACUGCCUCUCUGGAUUCCUCGUCACUCAGCAGGGCAUCUCUGAGAGAAACGCC [A24G U29C G32A U143C], for which the self-cleavage stood at 0.58.

In the case of UACGUAGGUGGUUUUCCCCUGAUGGUGCUAAGGGGGCCUGGAAGCUUGGACUGGGCAGAGCUCAACACAGCGUGGCAAAGUGGCUGUGGCUAGACUGCCUCUCUGGAUUCCUCGUCACUCAGCAGGGCAUCUCUGAGGGAAAUGCC [A24G U45C A138G], the self-cleavage stood at 0.84.

With UACGUAGGUGGUUUUCCCCUGAUGGAGCUAAGGGGGCCUGGAGGUUUGGACUGGGCAGAGCUCAACACAGCGUGGCAAAGUGGCUGUGGCUAGACUGCCUCUCUGGAUUCCUCGUCACUCAGCAGGGCGUCUCUGAGAGAAAUGCC [A24G U26A A43G A129G], the self-cleavage stood at 0.88.

UACGUAGGUGGUUUUCCCCUGAUGGUGCUAAGGGGGCCUGGAAGUUUGGACUGGGCAGAGCUAAACGCAGCGUGGCAAAGUGGCUGUGGCUAGACUGCCUCUCUGGAUACCUCGUCACUCAGCAGGGCAUCUCUGAGAGAAAUGCC [A24G C63A A67G U109A]: the self-cleavage was determined as 0.08.

On to UACGUAGGUGGUUUUCCCCUGAUGGUGCUAAGGGGGCCUGGAAGUUUGGAAUGGGCAGAGCUCAACACAGCGUGGCAAAGUGGCUGAGGCUAGACUGCCUCUCUGGAUUCCUCGUCACUCAGCAGGGCAUCUCUGAGAGAAAUGUC [A24G C51A U87A C145U], for which the self-cleavage was 0.19.

On to UACGUAGGUGGUUUUCCCCUGAUGGUGCUAAGGGGGCCUGGAAGUUUGGACUGGGCAGAGAUCAACACAGCGUGGCAAAGUGGCCGUGGCUAGACUGCCUCUCUGGAUUCCUCGUCACUCAGCAGGGCAUCUCUGAGAGAAAUGCC [A24G C61A U85C], for which the self-cleavage turned out to be 0.09.

For UACGUAGGUGGUUUUCCCCUGAUGGUGCCAAGGGGGCCUGGAAGUUUGGACUGGGCAGAGCUCAACACAGCGUGGCAAAGUGGCUGAGGCUAGACUGCCUCUCUGGAUUCCUCGUCACUCAGCAGGGCAUCUCUGAGGGAAAUGCC [A24G U29C U87A A138G], the self-cleavage worked out at 0.12.

In the case of UACGUAGGUGGUUUUCCCCUGAUGGUGCUAAGGGGGCCUGGAAGUUUGGACUGGGCAGAGCUCAAUACAGCGUGGCAAAGUGGCUGUGGCUAGACUGCCCCUCUGGAUUCCUCGCCACUCAGCAGGGCAUCUCUGAGAGAAAUGCC [A24G C66U U100C U115C], the self-cleavage was determined as 0.19.

In the case of UACGUAGGUGGUUUUCCCCUGAUGGUGCUAAGGGGGCCCGGAAGUUUGGACUGGGCAGAGCUCAACACAGCGUGGCAAAGUGGCUGUGGCUAGACUGCCUCUCAGGAUUCCUCGUCACUCAGCAGGGCAUCUCAGAGAGAAAUGCC [A24G U39C U104A U134A], the self-cleavage worked out at 1.34.

Take UACGUAGGUGGUUUUCCCCUGAUGGCGCUAAGGGGGCCUGGAAGUUUGGACUGGGCAGGGCUCAACACAGCGUGGCUAAGUGGCUGUGGCUAGACUGCCUCUCUGGAUUCCUCGUCACUCAGCAGGGCAUCUCUGAGAGAAAUGCC [A24G U26C A59G A77U]: the self-cleavage is 0.

With UACGUAGGUGGUUUUCCCCUGAUGGUGCUAAGGGGGCCUGGAAGUUUAGACUGGGCAGGGCUCAACACAGGGUGGCAAAGUGGCUGUGGCUAGACUGCCUCUCUGGAUUCCUCGUCACUCAGCAGGGCAUCUCUGAGAGAAAUGCC [A24G G48A A59G C71G], the self-cleavage was 0.06.

Regarding UACGUAGGUGGUUUUCCCCUGAUGGUGCUAAGGGGGCCUGGAAGCUUGGACUGGGCAUAGCUCAACACUGCUUGGCAAAGUGGCUGUGGCUAGACUGCCUCUCUGGAUUCCACGUCACUCAGCAGGGCAUCUCUGAGAGAAAUGCC [A24G U45C G58U A69U G72U U112A], the self-cleavage was 0.02.

With UACGUAGGUGGUUUUCCCCUGAUGGUGCAAAAGGGGCCUGGAAGUUUGGACUGGGCAGAGCUCAACACAGCGUGGCAAAGUGGCCGUGGCUAGACUGCCUCUCUGGAUUCCUCGUCACUCAGCAGGGCAUCUCUGAGAGAAAUGCC [A24G U29A G32A U85C], the self-cleavage amounted to 0.28.

As to UACGUAGGUGGUUUUCCCCUGAUGGUGCUAAGGGGGCCAGGGAGUUUGGACUGGGCAGAGCUCAACACAGCGUGGCAAAGUGGCUGUGGCUAGACUGCCUCUCUGGAUUCCUCGUCACUCAGCAGGGCAUCUCUGAGAGAAAUGCC [A24G U39A A42G], the self-cleavage is 1.18.

Consider UACGUAGGUGGUUUUCCCCUGAUGGUGCAAAGGGGGCCUGGAAGUUUGGACUGGGCAGAGCUCAACACAGCGUGGCAAAGUGGCUGUGGCUAGACUGCCCCUCUGGAUUCCUCGUCACUCGGCAGGGCAUCUCUGAGAGAGAUGCC [A24G U29A U100C A121G A141G], for which the self-cleavage was 1.31.

For the variant UACGUAGGUGGUUUUCCCCUGAUGGUGCUAAGGGGGCCAGGAAGUUUGGACUGGGCAGAGCUCAACACAGCGGGGCAAAGUGGCUGUGGCUAGACUGCCUCUCUGGAUUCCUCGCCACUCAGCAGGGUAUCUCGGAGAGAAAUGCC [A24G U39A U73G U115C C128U U134G], the self-cleavage came to 1.6.

Turning to UACGUAGGUGGUUUUCCCCUGAUGGUGCUAAGGGGGCUUGGAAGUUAGGACUGGGCAGAGCUCAACACGGCGUGGCAAAGUGGCUGUGGCUAGACUGCCUCUCUGGAUUCCUCGUCACUCAGCAGGGCAUCUCUGAGAGAAAUGCC [A24G C38U U47A A69G], the self-cleavage was 0.74.

Turning to UACGUAGGUGGUUUUCCCCUGAUGGUGCUAAAGGGGCCUGGAAGUUUGGACUGGGCAGAGCUCAACACAGCGCGGCAAAGAGGCUGUGGCUAGACUGCCUCUCUGGAUUCCUCGUCACUCAGCAGGGCAUCUCUGAGAGAAAUGCC [A24G G32A U73C U81A], the self-cleavage turned out to be 1.45.

As for UACGUAGGUGGUUUUCCCCUGAUGAUGCUAAGGGGGCCUGGAAGUUUGGACUGGGCAGAGCUCAACACAGCUUGGCAAAGUGGCUGUGGCUAGACUGCCUCUCUGGAUUCCUCGUCACUCAGCAGGGCAUCUCUGAGAGAAAUGCC [A24G G25A G72U], the self-cleavage came out at 1.33.

With UACGUAGGUGGUUUUCCCCUGAUGGUGCUAAGGGGGCCAGGAAGUUUGGACUGGGCAGAGCUCAACACAGCGUGGCAAAGUGGCUGUGGCUAGACUGCCUCUCUGGAUUCCUCGUCACUCAGCAGGGCAUCUCUGAGAGAAGUGCC [A24G U39A A142G], the self-cleavage is 0.46.
